Measured values taken from the supplement of paper PMC10126150.
Sequences with one replicate were seen in a single cluster, so their values are uncertain.

system: ATP; assay: switch fluorescence ratio, 500 uM ATP over buffer (Cy3 cluster intensity, sum of 5 cycles each) (fold (ratio)); higher = stronger signal-on switching upon ATP binding; sequences stand for … in TCGTCGGCAGCGTCAGATGTGTATAAGAGACAGTTTTTTTTTTTTTTTTTTTTTTTTT…TC; settings: aptamer strand: ATP DNA aptamer (quencher-CACCTGGGGGAGTATTGCGGAGGAAGG + anchor), 100 nM annealed; ATP concentration: 500 uM; one replicate
Method in brief: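 Five buffer/ATP imaging cycles were run on Cy3-labelled switching-strand clusters on a modified Illumina MiSeq flow-cell, with NaOH stripping and re-annealing between cycles. In each cycle, clusters annealed to 100 nM quencher-labelled ATP aptamer were imaged in selection buffer, then after 15 min with 500 uM ATP at 22 °C. Per cluster, the fluorescence ratio is summed target-cycle over summed buffer-cycle Cy3 intensity, averaged per switch-domain sequence. Only clusters within 100-1000 RFU were kept.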
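Note: ATP exposure 15 min at 22 °C before imaging.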

Sequence	switch fluorescence ratio
TAACCGCGGC	1.11
GCAGACATTG	1.01
ACTAGCAA	3.58
CACGATTGGA	0.974
GAGGGAGAGT	1.02
GCGCCATCTT	1.01
CGGTTGTCTG	0.965
CTGAACAGTC	1.04
TTTTTTCAAA	1.05
AGCATGGATG	0.962
GGCCGCCAAA	1.02
AACCCGGGTG	1.01
GAATAAAGCG	1.02
TCTATGGTCA	0.983
ACTCGTGCCT	1
TACGGGTGGA	0.98
TTAAGGTAT	0.996
ATTATCAGGG	0.972
GATGTGCAA	1.02
TTTGGTGCAA	1.12
CGTTTAACGC	0.969
AGGGAGGACA	0.993
TCGGGCATAA	1.21

Sequence	switch fluorescence ratio
CCATTTGGTG	2.65
CACCTTCAGC	1.29
ATTCTAATAA	1.01
GGTTCCCCGG	1.19
CAAGAAGAGC	1.01
TTTAAAGTGC	1.09
CGAGGCTCAT	1.07
GGAGTCCCCC	0.974
GTGTGAGCGA	0.974
ATATGTGCTT	0.961
AAGTTCTGCA	0.959
TTTTCTAT	0.989
AAATCAATTC	1.03
CTAATACTCG	1.34
ACTAGACCTA	1.09
TCGTTCATAA	1.04
TGACGTACGC	1.98
AATAGGCGGA	0.981
AATCCAAGGT	1.02
GCTGGGAGCT	1.02
GTGGCGCGGG	0.998
CGTACCCATG	1.05
TTCTTTGAG	1.01

Sequence	switch fluorescence ratio
ATAGACTACA	1.07
TCATATACTG	1.01
AAAAGTCTA	1.01
CGGGAATGGT	1
ATTGGTGCCG	0.904
CCGCGCAGTG	1.85
AAACTCTTGA	0.989
GATTTCTGAA	1
TCGAATTCCT	1.02
CGTGTAAAAT	1
ATGATAGGGT	0.961
TGAGCGGGGT	0.969
GTTGGTAGAT	0.996
CGCGAATAAA	0.998
TCGCTGGGGG	1.33
TGGGCGCTCG	1
CGTGTAAAAG	0.98
ACCATCGAAC	1.06
AGCTTTGGTG	1.03
TTCTAAGTTT	1.1
AACTGGCTTC	0.989
TTGCGACGAA	1.08
GGGATCAACA	0.99

Sequence	switch fluorescence ratio
CCTCCGCGGG	2.38
GGTACATTCA	1.02
GACCTCCCTG	1.02
GGTACAGGTC	0.989
TATCACTGAT	1.04
TCGTTTCCAT	1.03
TTCCGAGAGG	1.06
CAAGTTCGC	1.03
ACTACTAGAC	1.17
CTCCAAAGGG	1.04
GCGAGTTGGA	0.991
GTGATAATCT	1.51
CCTGGTAATG	1.09
ATTTGGTAG	1.04
TAAAATGAAG	0.998
AAGGCAACTA	1.03
CGCCGAGACA	1.02
CAGAGGTGGG	0.993
TTAAAATACG	0.975
TGCTTGAAAT	0.999
CGGGATTTCG	0.984
ACTATTTTGA	1.04
CTAATAGGAC	1.02

Sequence	switch fluorescence ratio
GCATTAGAGG	1.01
TACATGCTTC	1.01
GAAATGGATT	0.981
TGATGTCCTT	0.975
AATGGTCCAT	0.995
CCTGAGTTTA	1.06
ACGAGGATG	0.996
CAAGGCCGGT	1.02
TTTAAGGTCA	0.991
ACTTATTTAC	1.05
ATAGGCCATG	0.985
AATCACCTGA	1
CTGTACTTGC	1.05
ACCAGCAACG	1.07
GGTTTGCCTG	0.974
CGTCGAACAC	1.1
ACGGGGGTAC	1.03
TTCTACGAAA	1.27
CAGATTGGCT	1.01
CTACGAGTTG	0.998
CAAAATTCGT	0.995
CATCTCGCCG	1
CAGGGCGAAA	0.965

Sequence	switch fluorescence ratio
ATGGACGCGG	1.01
GAAATAGACG	0.995
CCGCGGGTGG	1.05
CGCGGGCTGA	1.01
TGCTAACTCT	1
TTTCTTGAG	0.951
AGTCCTTTCT	1.06
GTTGCGAAGA	1.03
ACATCAGTC	1.05
CGCAGAAAAA	1.04
TCGGAAAGTT	1.16
AGAGTAACGA	1.01
AAGGCTGGAC	0.988
CAGTCGGACG	0.999
TATAACGCTA	1.16
ACTCGGGCGT	1.19
TAGTGAACAG	1.02
AAGTGTAATG	0.982
GTTTGAGGTC	1
GCGGTTTGAA	0.976
TGCTCCATG	0.984
CTTGACAGGA	0.964
AGCATGGTTC	1.04

Sequence	switch fluorescence ratio
TGCTGTCACG	0.981
AGCGATGTAG	0.987
AAATGACTAT	0.987
CTATTACCG	1.04
GTTTTCCGAT	1.02
TTTAGTCCAG	0.998
TCGAATGTG	0.922
GAGGCGCCTT	0.981
ATATGGTACG	1.05
CGTCTTCTGA	1.04
GCAAGTCACA	1.11
CTGTGTCAAT	1.26
GGGTAAGCG	0.972
GTTATAGCAA	1.21
CGAGGTAATT	1.32
TTAATGTATA	1.01
GATATGAACA	1.02
GCCAAAGATG	0.973
GGCATGTTGT	0.972
